Measurements published in the BET-seq Pho4 binding data (Le et al. 2018).
The list shows a part of the results. Values were computed here from the reads of four pooled replicates and scatter widely.

These sequences were tested against T1, Pho4 (S. cerevisiae) (UniProt P07270) (assay: relative binding free energy (BET-seq); higher = weaker binding). Conditions: reference: library average.
T1 sequence: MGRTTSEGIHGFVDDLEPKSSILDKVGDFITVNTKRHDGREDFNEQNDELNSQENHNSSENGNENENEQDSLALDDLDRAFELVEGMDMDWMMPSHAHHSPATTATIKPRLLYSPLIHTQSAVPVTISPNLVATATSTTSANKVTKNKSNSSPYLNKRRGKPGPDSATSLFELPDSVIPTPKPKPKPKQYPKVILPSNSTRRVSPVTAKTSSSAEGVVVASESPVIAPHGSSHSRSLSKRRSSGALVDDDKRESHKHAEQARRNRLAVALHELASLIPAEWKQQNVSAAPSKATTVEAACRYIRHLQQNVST

Row | Sequence | relative binding free energy [kcal/mol]
1 | GCATTCACGTGGGATT | 0.22
2 | GTTGGCACGTGAATGG | 0.31
3 | AATTTCACGTGGTACG | 0.14
4 | TTTTACACGTGGGGCC | 0.1
5 | GGTATCACGTGGAGGT | 0.24
6 | ATTTCCACGTGTTTAA | 0.09
7 | TTGTGCACGTGTTGCC | 0.02
8 | ACTGCCACGTGGGGGG | -0.25
9 | TTGAACACGTGGGAAT | 0.14
10 | TGGCTCACGTGGGGCA | 0.14
11 | GAAGTCACGTGGGATA | 0.02
12 | CTGGTCACGTGAGGAA | 0.43
13 | ATCTGCACGTGTCGGG | -0.1
14 | GTTTTCACGTGTCGAG | 0.23
15 | AGTATCACGTGTTGGT | 0.16
16 | AGGGCCACGTGACGGG | 0.02
17 | ATTATCACGTGATAGA | 0.25
18 | CAGTGCACGTGTTTTA | -0.08
19 | GTGTACACGTGGTTCA | -0.03
20 | ATTGGCACGTGATTGG | -0.04
21 | GGTGGCACGTGGAGCC | 0.02
22 | GGAGGCACGTGAGAGA | 0.18
23 | GTTAACACGTGGTTCG | -0.03

Row | Sequence | relative binding free energy [kcal/mol]
24 | GGTTGCACGTGCGGAG | 0.08
25 | AGTATCACGTGCTGGA | 0.23
26 | GTCGTCACGTGTTTGG | 0.12
27 | TCGGGCACGTGTGGTA | -0.03
28 | AAATTCACGTGTTCGT | 0.19
29 | TAGTTCACGTGTGGTT | 0.32
30 | GGGCTCACGTGGCTGG | 0.29
31 | TACGTCACGTGGTAGT | 0.1
32 | TGGAGCACGTGCGTGG | -0.13
33 | TTGGGCACGTGGTGCT | -0.27
34 | TCAATCACGTGTGGTT | 0.09
35 | ATCGGCACGTGGTTAG | -0.12
36 | GTAGGCACGTGGTGCC | -0.03
37 | CGGGTCACGTGAAGGG | 0.39
38 | TAATTCACGTGTATGG | 0.29
39 | GGTTTCACGTGTTGCA | 0.3
40 | ATTTGCACGTGTTCCG | 0.07
41 | AGCATCACGTGAGGGT | 0.13
42 | GTGGTCACGTGGTTCG | 0.18
43 | TCTATCACGTGGGTTT | 0.08
44 | GTGGTCACGTGATTAA | 0.31
45 | TATCTCACGTGGGAGG | 0.2
46 | CGGTTCACGTGAGAGG | 0.47

Row | Sequence | relative binding free energy [kcal/mol]
47 | AAGTGCACGTGAAGGT | 0.13
48 | TTGGGCACGTGGGGAA | -0.23
49 | TAACTCACGTGTGTGA | 0.38
50 | GGGGCCACGTGGTATA | -0.06
51 | TGGGACACGTGTTATG | 0.16
52 | ATAGTCACGTGTGGGT | 0.14
53 | GGATTCACGTGCATTG | 0.32
54 | TTTATCACGTGGATCG | 0.18
55 | TTGAACACGTGGCATG | -0.03
56 | GTGGTCACGTGTTATC | 0.25
57 | CTAGGCACGTGGGATA | -0.15
58 | TTTCGCACGTGTTGTT | -0.07
59 | CTGTGCACGTGATGTT | -0.05
60 | CGAGTCACGTGTTAGT | 0.09
61 | TTATGCACGTGTCTTT | -0.09
62 | ATTGGCACGTGAGGTT | 0.2
63 | GGTGGCACGTGGAGGC | -0.07
64 | TTTACCACGTGAAGGT | 0.22
65 | GTTACCACGTGCGTGG | 0.06
66 | GGGTGCACGTGGTAAA | -0.01
67 | TAAGGCACGTGTGTAG | -0.08
68 | AGTGTCACGTGAGGGG | 0.2
69 | TTGGGCACGTGGTATC | -0.1

Row | Sequence | relative binding free energy [kcal/mol]
70 | ATAGCCACGTGGGGTA | -0.34
71 | TTAAGCACGTGGTATC | -0.27
72 | AGTGGCACGTGGGGTC | -0.31
73 | TTGGGCACGTGTGAAT | -0.09
74 | TGTTTCACGTGGTCTA | 0.24
75 | GGGCTCACGTGCAGTG | 0.18
76 | AGGTGCACGTGTCGTT | -0.03
77 | TCATGCACGTGGAGTA | 0.03
78 | AATGGCACGTGGCGAT | -0.07
79 | TTTTTCACGTGATATC | 0.23
80 | TGTTTCACGTGGATTC | 0.25
81 | TCTGACACGTGGTTGA | -0.06
82 | TGTTTCACGTGAATCT | 0.35
83 | TCTGTCACGTGAGTTA | 0.34
84 | GTATTCACGTGGGTTA | 0.19
85 | GGGATCACGTGCGGGA | 0.21
86 | GTTAGCACGTGAGGAT | 0.27
87 | TCATTCACGTGTAGGG | 0.25
88 | GTTGGCACGTGAAGCG | 0.07
89 | CTATCCACGTGGTGGG | 0.01
90 | TCTATCACGTGAGTTG | 0.21
91 | GGGGGCACGTGCGGCT | -0.16
92 | AAGTTCACGTGGGTTT | 0.26

Row | Sequence | relative binding free energy [kcal/mol]
93 | TAAGTCACGTGGTAAG | 0.04
94 | GTTTTCACGTGTTATT | 0.17
95 | TGTGGCACGTGGATTC | 0.03
96 | TGATGCACGTGTACGG | -0.12
97 | GGGAACACGTGCTGTG | -0.02
98 | AGGGGCACGTGAACTG | 0.02
99 | TGTAGCACGTGGAGAT | -0.16
100 | TGTTCCACGTGTTTCG | 0.18
101 | ATTGACACGTGTACGT | 0.04
102 | TGTATCACGTGTTTAA | 0.05
103 | AGCATCACGTGGGATG | 0.03
104 | TTAGTCACGTGGTATT | -0.06
105 | TGTTACACGTGACTTT | 0.26
106 | GGTGACACGTGATAGT | 0.1
107 | TCTATCACGTGAGGTC | 0.33
108 | GGAAGCACGTGGGGAC | -0.17
109 | GGTTACACGTGCGGTT | 0.26
110 | AGTTTCACGTGTGATA | 0.2
111 | GAGTTCACGTGATGCT | 0.45
112 | TAGTTCACGTGGCTAG | 0.15
113 | TTCGGCACGTGTGCGG | 0.03
114 | CGGAGCACGTGGTCTG | -0.21
115 | ATTGGCACGTGTGACG | -0.04
